Measured values from PubChem BioAssay AID1345082 (National Center for Advancing Translational Sciences (NCATS), 2018).
The campaign covered roughly 94,000 compounds. About 4,000 (4.3%) were called active. Inconclusive results, whose numbers are uncertain, are shown with a selection of clear calls. Calls come from the whole dose curve; as a rule, active = well fitted inhibition curve with a large enough effect; inconclusive = small, poorly fitted or top-dose-only effect; inactive = no such curve, though single readings can be large or run the other way. A potency beside an inconclusive call is a rough fit, not a confirmed value.

test: Cytotoxic Profiling in NIH 3T3 Cell Line of Diverse Libraries Using Quantitative High-Throughput Screening; conditions: NIH 3T3 viability, CellTiter-Glo ATP luminescence, 48-72 h; series mostly up to 96.7 µM; note: nearly all actives have a fitted effect of over 55% in size
Outline: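 Mouse fibroblast NIH 3T3 cells, 400 per well, received compound via pintool and were incubated for 48 or 72 hr prior to CellTiter-Glo ATP luminescence measurement.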
Potency is the fitted concentration of half-maximal effect; tags give direction and shape of the fitted curve.

Row | Structure (SMILES) | Potency
1 | Cc1ccc(C(=O)N2CCc3nc(C4CC4)nc(-c4ccc(Cl)cc4)c3CC2)cc1 | inactive
2 | O=C(N[C@@H]1[C@@H](Cc2ccccc2)[C@H]2OCC[C@@H]12)c1scc2c1OCCO2 | inconclusive: 89.1 µM [inhibitor, single point]
3 | CCOc1cc2c(cn1)NCCN(Cc1ccccc1OC)C2 | inconclusive: 70.8 µM [inhibitor, partial curve, poor fit]
4 | COc1ccc(OC)c(S(=O)(=O)N2CCC(c3nc(-c4cccn4C)no3)CC2)c1 | inconclusive: 28.2 µM [inhibitor, full curve]
5 | C=CCN(Cc1cccc(OC)c1)C(=O)CCc1cccc(F)c1 | inconclusive: 56.2 µM [inhibitor, partial curve, poor fit]
6 | O=C(Cn1ccc(=O)[nH]c1=O)N1CCC2(CCCN(C3CCCC3)C2=O)C1 (configuration not stated) | inactive
7 | CN(C)C[C@@H]1CN(Cc2cccnc2)C[C@H]1NC(=O)c1cc2ccccc2[nH]1 | inconclusive: 31.6 µM [inhibitor, full curve]
8 | CC1(COc2ccc3[nH]ccc3c2)COc2ccc(C(=O)Nc3cccnc3)cc2N1 (configuration not stated) | active: 89.1 µM
9 | O=C(c1ccc(F)cc1Cl)N1Cc2cnn(Cc3ccc(F)cc3)c2C1 | inconclusive: 44.7 µM [inhibitor, full curve, poor fit]
10 | NC(=O)c1cccc(-c2ccc3c(n2)CN(Cc2nc4ccccc4s2)C(=O)CO3)c1 | inconclusive: 39.8 µM [inhibitor, partial curve, poor fit]
11 | O=C(Cn1c(=O)oc2ccccc21)NCC1Cn2cccc2C(=O)N1Cc1ccccc1 (configuration not stated) | inactive
12 | CCn1cc(S(=O)(=O)N2CCCCCCNC(=O)[C@@H]3CCC[C@@H]32)cn1 | inconclusive: 50.1 µM [inhibitor, partial curve, poor fit]
13 | COc1ccc(-c2nc(CN3CCC(F)(F)CC3)c(C)o2)c(OC)c1C | inconclusive: 89.1 µM [inhibitor, partial curve, poor fit]
14 | Cc1nn(-c2ccc(C(F)(F)F)cc2)c(C)c1[C@@H]1C=C[C@@H](NC(=O)CCC(=O)O)C1 | inconclusive: 100 µM [inhibitor, partial curve, poor fit]
15 | COCCNc1c(-c2noc(C)c2C(=O)Nc2ccc(F)c(OC)c2)cnn1C | inconclusive: 89.1 µM [inhibitor, partial curve, poor fit]
16 | CC1=C[C@@H](CN2CCOCC2)[C@H](C(C)C)C[C@H]1Cc1nnc(-c2ccncc2)o1 | inconclusive: 89.1 µM [inhibitor, partial curve, poor fit]
17 | Cc1ccc(CN2CCOc3cc([S+](=O)([O-])N(C)C)ccc3C2)c(F)c1 | inconclusive: 35.5 µM [inhibitor, full curve]
18 | Cc1ccc(C(=O)N2CCC3(CC2)CC(=O)c2ccccc2O3)cc1 | inconclusive: 25.1 µM [inhibitor, partial curve, poor fit]
19 | CC(C)N1C(=O)CO[C@H]2CCN(Cc3ccccn3)CC[C@@H]21 | inconclusive: 112 µM [inhibitor, single point]

Row | Structure (SMILES) | Potency
20 | CC(C)CNC(=O)C1CCN(c2ccnc3ccnn23)CC1 | inactive
21 | C#CCOc1ccc(C(=O)N[C@@H]2CN(Cc3cccc(OC)c3)CCC[C@H]2O)cc1 | inconclusive: 63.1 µM [inhibitor, partial curve, poor fit]
22 | O=C(NC1CCN(c2cc(-c3ccccc3)[nH]n2)CC1)c1cnccn1 | inactive
23 | CCOC(=O)C1=C(C)N(Cc2ccc(C(=O)N3CCCCC3)cc2)C(=O)CC1c1cccc(C)c1 (configuration not stated) | inconclusive: 39.8 µM [inhibitor, partial curve, poor fit]
24 | CN1CCCCCC(O)c2cc(C(=O)N3CCN(c4ccccn4)CC3)ccc21 (configuration not stated) | inconclusive: 44.7 µM [inhibitor, partial curve]
25 | CC[C@@]1(O)CCN(c2nc(N)c3cc(OC)c(OC)cc3n2)C[C@H]1O | inconclusive: 89.1 µM [inhibitor, single point]
26 | CC1=C(C(=O)OC(C)C)C(c2ccc(C)cc2)N2C(CC(=O)N3CCCCC3)=CSC2=N1 (configuration not stated) | inconclusive: 50.1 µM [inhibitor, single point]
27 | COc1ccc(NC(=O)c2c(C)oc3ccn(Cc4cccc(F)c4)c(=O)c23)cc1F | inconclusive: 50.1 µM [inhibitor, partial curve, poor fit]
28 | CN(CCc1ccccc1)CCN1CC2(CCN(c3ncccc3C#N)CC2)OC1=O | inconclusive: 56.2 µM [inhibitor, partial curve, poor fit]
29 | CC(=O)Oc1c(-c2ccc(NC(=O)c3ccco3)cc2)c(-c2cccc(C)c2)nn1-c1cccc(F)c1 | inconclusive: 50.1 µM [inhibitor, partial curve, poor fit]
30 | O=C(Nc1ccc(F)cc1)N1CCCC(Cn2c(C3CC3)nc3cccnc32)C1 (configuration not stated) | inconclusive: 50.1 µM [inhibitor, partial curve, poor fit]
31 | COc1ccc(NC(=O)c2nc3sccn3c2-c2cccc(OC)c2)cc1 | inconclusive: 44.7 µM [inhibitor, partial curve, poor fit]
32 | COc1cc(-c2ccnc3nc(CC(C)C)nn23)cc(OC)c1OC | inconclusive: 35.5 µM [inhibitor, partial curve, poor fit]
33 | CC1CCC2(CC1)NC(=O)N(CC(=O)Nc1ccc(C(C)C)cc1)C2=O (configuration not stated) | inconclusive: 11.2 µM [inhibitor, full curve, poor fit]
34 | O=C(NCc1ccc(F)cc1)C1CCCN(Cc2cccc(-c3ccsc3)c2)C1 (configuration not stated) | inconclusive: 44.7 µM [inhibitor, partial curve, poor fit]
35 | Cc1ccc(-c2noc([C@@H]3Cc4nc[nH]c4CN3C(=O)NC(C)C)n2)cc1 | inconclusive: 112 µM [inhibitor, single point]
36 | O=C(c1ccc(F)c(Cl)c1)N1CCC(Cc2nc(-c3cnccn3)no2)CC1 | active: 31.6 µM
37 | C=CCOC(=O)C1=C(C)N=C2SC=C(CC(=O)NCc3ccco3)N2C1c1cccc(C)c1 (configuration not stated) | inconclusive: 50.1 µM [inhibitor, partial curve, poor fit]
